# Measurements from article PMC4336329 (PLoS ONE, 2015).
# The whole screen tested about 310,000 compounds, of which about 14,000 (4.5%) showed an effect of 50% or more. Effects have a minus sign here. Some of the results follow.
# Biological target: human ether-à-go-go-related gene (hERG) potassium channel (human, UniProt Q12809)
# Assay: primary screen, population patch clamp on CHO cells stably expressing hERG
# 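Also: peak tail current of the secondary pulse compared with the same well before compound.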
# human ether-à-go-go-related gene (hERG) potassium channel, sequence (Q12809 whole entry, looked up): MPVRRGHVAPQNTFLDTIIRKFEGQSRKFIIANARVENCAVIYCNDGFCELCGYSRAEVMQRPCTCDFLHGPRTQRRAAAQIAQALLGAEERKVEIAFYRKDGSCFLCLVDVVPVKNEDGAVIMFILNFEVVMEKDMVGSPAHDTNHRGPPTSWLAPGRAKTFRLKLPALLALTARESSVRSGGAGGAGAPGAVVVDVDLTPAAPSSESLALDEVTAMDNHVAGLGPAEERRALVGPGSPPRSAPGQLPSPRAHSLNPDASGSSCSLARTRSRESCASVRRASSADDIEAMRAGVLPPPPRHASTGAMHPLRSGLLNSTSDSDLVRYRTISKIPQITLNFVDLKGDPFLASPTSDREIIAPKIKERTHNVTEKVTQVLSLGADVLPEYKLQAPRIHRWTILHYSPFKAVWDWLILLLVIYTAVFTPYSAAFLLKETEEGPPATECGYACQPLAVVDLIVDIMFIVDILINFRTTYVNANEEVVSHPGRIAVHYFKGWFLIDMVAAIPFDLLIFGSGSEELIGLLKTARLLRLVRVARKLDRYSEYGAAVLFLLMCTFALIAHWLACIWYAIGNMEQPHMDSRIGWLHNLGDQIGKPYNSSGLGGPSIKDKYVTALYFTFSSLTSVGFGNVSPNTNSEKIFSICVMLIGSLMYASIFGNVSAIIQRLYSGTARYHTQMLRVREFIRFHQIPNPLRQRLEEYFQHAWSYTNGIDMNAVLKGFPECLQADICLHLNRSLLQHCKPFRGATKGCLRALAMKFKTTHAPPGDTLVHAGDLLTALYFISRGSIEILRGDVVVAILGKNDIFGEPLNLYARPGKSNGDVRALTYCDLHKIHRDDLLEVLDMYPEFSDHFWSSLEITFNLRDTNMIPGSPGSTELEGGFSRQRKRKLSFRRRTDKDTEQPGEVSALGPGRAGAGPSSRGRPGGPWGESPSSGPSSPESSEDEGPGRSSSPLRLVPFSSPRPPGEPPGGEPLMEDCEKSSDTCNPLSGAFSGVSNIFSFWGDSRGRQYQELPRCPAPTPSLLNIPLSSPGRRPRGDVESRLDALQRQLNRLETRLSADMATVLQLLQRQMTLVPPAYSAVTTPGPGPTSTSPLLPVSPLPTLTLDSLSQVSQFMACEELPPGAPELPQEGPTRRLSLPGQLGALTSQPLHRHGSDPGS
row,Structure (SMILES),"hERG current change (%, negative = inhibition) at 10uM"
1,Cc1cccc(C)c1NC(=O)CN(C)C(=O)CC1Sc2ccccc2NC1=O (stereo not drawn),7.95%
2,O=C(O)c1cccc(Cn2c(Cl)c(/C=N/NC(=O)c3ccc(O)cc3)sc2=O)c1,2.09%
3,COc1cnc(-c2ccccn2)nc1Sc1ccccc1Cl,-9.22%
4,Cc1ccc(-n2ncc3c(NCc4ccc5c(c4)OCO5)ncnc32)c(C)c1,-28.9%
5,O=C1CCCc2[nH]c(-c3ccccc3)nc21,13%
6,O=c1c(/C=N/O)coc2ccc3ccccc3c12,-5.77%
7,O=C(CCN1C(=O)S/C(=C/c2ccccc2)C1=O)Nc1ccc(O)c(C(=O)O)c1,24.9%
8,CCOc1ccc(S(=O)(=O)Nc2cccc(C(=O)NCC(c3ccc(OC)cc3)N3CCOCC3)c2)cc1 (stereo not drawn),-1.21%
9,NC(=O)c1nc(-c2ccccc2)c(-c2ccccc2)[nH]c1=O,-0.448%
10,O=C(c1ccccc1)c1cnc(-c2ccc(Cl)cc2)s1,2.84%
11,COc1cc(C(C)=O)ccc1OCC(O)CNCC(O)c1ccccc1.O=C(O)C(=O)O (stereo not drawn),0.805%
12,CC1CCCCN1Cc1c(O)ccc2c(=O)c(-c3nc4ccccc4s3)coc12 (stereo not drawn),-48%
13,O=C(CSCc1c(Cl)cccc1Cl)Nc1ccc2c(c1)OCCO2,-11.4%
14,COc1cc(OC)c(-c2nc(-c3ccncc3)no2)cc1OC,6.91%
15,O=C(O)CC(CC(=O)O)(C(=O)O)c1ccccc1,21.1%
16,O=C(CN1CCN(Cc2ccccc2)CC1)N/N=C/c1ccccc1F,-29.3%
17,CC(C)Nc1cc(C(C)(C)C)nc2c(-c3ccccc3)cnn12,8.72%
18,CC1(C)CC(CC(=O)NC(=S)Nc2ccc([N+](=O)[O-])cc2)C(=O)O1 (stereo not drawn),-21.2%
19,Cc1ccccc1CCN1CCCC(CN(C)C(=O)C(=O)c2ccco2)C1 (stereo not drawn),-70.1%

row,Structure (SMILES),"hERG current change (%, negative = inhibition) at 10uM"
1,CCN(CC)C(=O)c1cnn(-c2ccccc2)c1NC(=O)c1cccc(F)c1,13.3%
2,Clc1ccc(OCCOCCOc2cccc3cccnc23)c(Br)c1,0.0859%
3,CC(C)CC(NC(=O)C1CCCCC1)C(=O)N1CCC2(CC1)OCCO2 (stereo not drawn),-13.1%
4,CC(C)(C)N1C(=O)[C@H]2[C@@H](c3ccc(Br)cc3)N3C(=O)N(c4ccc(Br)cc4)C(=O)[C@@]3(Cc3ccccc3)[C@H]2C1=O,2.33%
5,C=C(C)CN(Cc1ccccc1)C(=S)Nc1ccccc1,18.1%
6,C/C(=N\NC(=O)CCCNc1ccc(C)cc1)c1ccccn1,-12.5%
7,Cc1ccc(S(=O)(=O)CCNC(=O)Cc2ccccc2)cc1,26.9%
8,Cc1ccc(Cn2nnc3c(=O)n(CC(=O)NCc4ccco4)cnc32)cc1,-4.07%
9,NC(=O)CC(NC(=O)c1ccc(Br)cc1)c1ccc(N2CCCCCC2)c([N+](=O)[O-])c1 (stereo not drawn),-7.79%
10,C=C1N2CCC(CC2)C1(O)c1ccc(C)c(C)c1.Cl (stereo not drawn),9.86%
11,O=C(CN1C(=O)CCC1=O)NCC12CC3CC(CC(C3)C1)C2,-4.05%
12,COC(=O)c1ccc(NS(=O)(=O)c2ccc(OC)cc2)cc1,-3.31%
13,CCCCN(C)CCNC(=O)c1cc2c(-c3ccccc3F)nn(C)c2s1,-48%
14,N#Cc1nccnc1N1CCN(C(=O)Nc2ccccc2)CC1,5.22%
15,COc1cc(C(=O)Nc2cc(-c3cn4cccnc4n3)ccc2C)cc(OC)c1OC,1.74%
16,Cc1ccnc(SC2CC(=O)N(c3ccc(F)cc3)C2=O)n1 (stereo not drawn),8.46%
17,CCCSc1cc(NCCOC(C)=O)c([N+](=O)[O-])c2nonc12,-45.3%
18,O=[N+]([O-])c1c(Nc2ccccc2O)ccc2nonc12,0.726%
19,O=C(Nc1ccc2c(c1)CCC2)c1cccs1,24.7%

row,Structure (SMILES),"hERG current change (%, negative = inhibition) at 10uM"
1,CCc1ccccc1NC(=S)N(CCN1CCOCC1)Cc1ccccc1F,1.86%
2,Cc1ccc(NC(=O)c2nsc(Cl)c2Cl)cc1,5.34%
3,c1ccc(-c2nccc(-c3ccc(-n4cnc5ccccc54)cc3)n2)cc1,9.7%
4,Cc1ccc(C2C(C#N)=C(N)SC(N)=C2C#N)c(C)c1,16.6%
5,O=C(CSc1n[nH]c(-c2cccs2)n1)N1CCCCC1,-0.465%
6,COc1cccc(C(=O)NNC(=O)CCc2ccccc2)c1,8.13%
7,Cc1cccc(N2CCN(CC(=O)Nc3nccs3)CC2)c1C,-45.3%
8,CCOc1ccc(CCNC(=O)COC(=O)c2ccc(Br)o2)cc1OCC,7.98%
9,COc1ccc2[nH]c3c(c2c1)CCC/C3=N\N,12.8%
10,Cc1ccc(CCS(=O)(=O)c2ccc(C(C)(C)C)cc2)cn1,17%
11,CCOc1ccccc1-n1c(SCC(=O)NC2CCCC2)nnc1-c1ccoc1C,-24%
12,Cn1cc(CN2CCCC(C(=O)Nc3cccc(-n4cccn4)c3)C2)cn1 (stereo not drawn),-5.79%
13,CN1C(=O)C(CCC(=O)O)NC1=S (stereo not drawn),0.141%
14,CCOC(=O)c1cn(CC(=O)Nc2ccc(C(C)C)cc2)nn1,4.62%
15,O=C1C(Cl)=C(N2CCCC2)C(=O)N1c1ccccc1F,13.8%
16,CC1CCN(C(=O)CCc2ccc(S(=O)(=O)NC(C)(C)C)cc2)CC1,-5.31%
17,Cc1cccc(-n2ncc3c2CCCC3NC(=O)C2(C(N)=O)CC2)c1C (stereo not drawn),7.42%
18,COc1cc(/C=C(\C#N)C(=O)NC(C)C)ccc1OCc1ccc(C(=O)O)cc1,7.22%
19,O=C(c1ccc2c(c1)OCO2)N1CCCc2ccccc21,7.07%
